Measured values published in PubChem BioAssay AID686979 (National Center for Advancing Translational Sciences (NCATS), 2013).
In all, about 420,000 compounds went through this assay and about 50,000 (12%) were called active. Inconclusive results, whose numbers are uncertain, are shown with a selection of clear calls. Calls follow the shape of the dose curve; as a rule, active = well fitted inhibition curve with a large enough effect; inconclusive = small, poorly fitted or top-dose-only effect; inactive = flat fitted curve, though single readings scatter. No potency is given beside an inconclusive call; the fits are too rough.

test: qHTS for Inhibitors of human tyrosyl-DNA phosphodiesterase 1 (TDP1): qHTS in cells in presence of CPT; conditions: chicken DT40 Tdp1-/-;hTDP1 cells + 20 nM CPT, ATP luminescence, 48 h; activity change, negative = growth inhibition: at 46.2 µM (top of the series); also: nearly all actives have a fitted effect of over 55% in size
Summary of the method: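 Chicken DT40 Tdp1-/- cells complemented with human TDP1, 400 cells/well, exposed to compounds plus 20 nM camptothecin for at least 48 h at 37 C; viability read as ATP content by CellTiter-Glo luminescence.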
% is scaled to controls: 0 for no effect and ±100 for the full control effect; potency is read from the fitted curve at half-maximal effect; tags tell the direction and shape of the fitted curve.

SMILES	Potency	activity change, negative = growth inhibition
Cc1noc(C)c1CSCC(=O)NCCN1C(=O)S/C(=C\c2ccccc2F)C1=O	inconclusive [inhibitor, single point]	
CCOc1ccc(NC(=O)CSc2nc3nc4c(cc3c(=O)n2CC)COC(C)(C)C4)cc1	inconclusive [inhibitor, single point]	
Cc1sc(Cc2nc(O)cs2)nc1-c1ccccc1	inconclusive [inhibitor, partial curve]	
Cc1ccc2c(c1)CCCN2C(=O)c1ccncc1		inconclusive: -30.9% [inhibitor]
COC(=O)N1CCC[C@@]2(CCN(C(=O)Nc3ccccc3)C2)C1	inactive	
Cc1ccc2nc(-c3ccccn3)c(NC3CCCC3)n2c1	active: 1.3 µM	
COc1ccc(-c2nnn(CC(=O)Nc3sc4c(c3C#N)CCCC4)n2)cc1	inactive	
CC1=Nc2ccccc2/C1=C/c1nc(-c2ccc(C)s2)oc1O	inconclusive [inhibitor, single point]	
COc1ccc(CN(C)C(=O)c2ccc3c(=O)n4c(nc3c2)CCC4)c(OC)c1	inconclusive [inhibitor, single point]	
COCCCNC(=O)CCCn1c(=O)c2ccccc2n(CC(=O)Nc2ccc(C)cc2Cl)c1=O	inactive	
CCC(C(=O)NC1CCCCC1)N(Cc1cccs1)C(=O)CCC(=O)Nc1cc(C)on1 (centres undefined)	inconclusive [inhibitor, single point]	
Cc1[nH]c(C)c(S(=O)(=O)NCCc2ccc(S(N)(=O)=O)cc2)c1C(=O)N1CCCC1	inconclusive [inhibitor, single point]	
CN1CCN(C(=S)NC(=O)c2ccc(-c3ccccc3)cc2)CC1	inconclusive [inhibitor, single point]	
Cn1c(=O)c2c(nc(N3CCOCC3)n2Cc2ccccc2Cl)n(C)c1=O	inconclusive [inhibitor, single point]	
Cc1ccc(S(=O)(=O)N2C[C@@H](C)[C@]3(C2)[C@H](O)[C@H](OC(=O)Nc2cccs2)C[C@H]2C(=O)N(c4ccccc4)C(=O)[C@H]23)cc1	active: 23.1 µM	
C=CCNC(=S)NNC(=O)C(CCC(C)C)CC(C)(C)O (centres undefined)	inconclusive [inhibitor, single point]	
COc1ccc(OC)c(NC(=O)c2cc3oc4ccccc4c3cc2O)c1	inconclusive [inhibitor, partial curve]	
CCC(CC)C(=O)N(C)c1c(C)nc2c(OCc3ccc(OC(F)F)cc3)cccn12	active: 11.6 µM	
CN(C)C(=O)c1cnc(Sc2ncc(C(F)(F)F)cc2Cl)n1C	active: 8.2 µM	
O=C(CCNC(=O)c1ccc(Cl)cc1)Nc1ccc(Cl)cc1F	inactive	
COc1ccc(NC(=S)N2CCN(C(c3ccccc3)c3ccccc3)CC2)c(OC)c1	active: 14.6 µM	
O=S(=O)(c1c(Cl)cc(Br)cc1Cl)N1CCN(C(=S)NC2CC2)CC1	inconclusive [inhibitor, partial curve, poor fit]	
CCc1ccccc1NC(=O)CNC(=O)CCc1nc2sc3c(c2c(=O)[nH]1)CCCC3	inactive	

SMILES	Potency	activity change, negative = growth inhibition
O=C1c2ccccc2-c2cc([N+](=O)[O-])c([N+](=O)[O-])cc21	active: 0.398 µM	
Cc1cccc2nc(-c3ccco3)c(Nc3ccc4c(c3)OCCO4)n12		inconclusive: -32.1% [inhibitor]
CCOC(=O)c1c(NC(=S)N2CCCCC2)sc2c1CCN(C(=O)OCC)C2	inconclusive [inhibitor, single point]	
CCC(c1nnnn1Cc1ccco1)N1CCN(c2cc(Cl)ccc2C)CC1 (centres undefined)	inconclusive [inhibitor, single point]	
C[C@@H]1CN([C@@H](C)CO)C(=O)c2cccc(NS(=O)(=O)c3cccs3)c2O[C@H]1CN(C)Cc1ccc(C(F)(F)F)cc1	active: 16.4 µM	
C[C@H](NC(=O)[C@@H]1CSC2c3ccccc3C(=O)N21)C(=O)NCCc1ccc(F)cc1 (some centres undefined)	inactive	
COc1ccc(-c2cc(C(F)(F)F)c(C#N)c(SCC(=O)Nc3nc(C)co3)n2)cc1	inconclusive [inhibitor, partial curve]	
COc1ccccc1S(=O)(=O)c1c(C)cc(C)[nH]c1=O	inactive	
CC(C)Cn1c(-c2ccccc2Cl)nc2ccccc21	inconclusive [inhibitor, single point]	
CC1(C)CC(=O)c2cc(NC(=O)c3ccccc3)c(=O)oc2C1	inconclusive [inhibitor, single point]	
COc1ccccc1N=c1oc2cc(O)ccc2cc1C(=O)NCC1CCCO1 (centres undefined)	inconclusive [inhibitor, single point]	
CCC1SC(CC)C(=O)N(CC(=O)NCCc2ccccc2)C1=O (centres undefined)	inactive	
NNC(=O)C=C1CCN(c2ncc(C(F)(F)F)cc2Cl)CC1	inconclusive [inhibitor, single point]	
CC(NCc1cc(Br)ccc1OCC(N)=O)C12CC3CC(CC(C3)C1)C2 (centres undefined)	inconclusive [inhibitor, single point]	
O=C(CCN1CCN(CCO)CC1)Nc1ccc(C2CCCC2)cc1	inconclusive [inhibitor, single point]	
CCNC(=O)C1(C)CCCN(C(=O)c2ccccc2Br)C1 (centres undefined)	inactive	
CCCc1n[nH]c(=S)n1Cc1ccco1	inactive	
Cc1cc(C)nc(OC(C(=O)O)C(OCCc2ccccc2)(c2ccc(F)cc2)c2ccc(F)cc2)n1 (centres undefined)	inconclusive [inhibitor, single point]	
COc1ccc(N(CC(=O)NCCc2ccc(C)cc2)S(=O)(=O)c2c(C)nn(C)c2C)cc1	inconclusive [inhibitor, single point]	
O=C(c1ccsc1)N1CCCC(N2CCN(c3cccc(C(F)(F)F)c3)CC2)C1 (centres undefined)	inconclusive [inhibitor, single point]	
O=C(CSc1nncn2c1cc1occc12)Nc1ccc(F)c(Cl)c1	inconclusive [inhibitor, partial curve]	
CCCn1c(N)c(C(=O)CSc2nnc(C3CC3)n2-c2ccccc2)c(=O)[nH]c1=O	inactive	
Cc1ccc(C(=O)N/N=c2\oc3ccccc3cc2C(N)=O)cc1	inconclusive [inhibitor, single point]	

SMILES	Potency	activity change, negative = growth inhibition
O=C(COc1ccc(Cl)cc1Cl)NN=C1c2ccccc2-c2ccccc21	inconclusive [inhibitor, single point]	
CC(C)Cn1c(CN2CCN(c3cccc(Cl)c3)CC2)nc2c1c(=O)[nH]c(=O)n2C	active: 18.4 µM	
O=C(NCCc1ccc(Cl)cc1)c1ccc2nc(CCc3ccccc3)oc2c1	inconclusive [inhibitor, partial curve, poor fit]	
CCN(CC)c1ccc(S(=O)(=O)N2CCOCC2)cc1NC(=O)CNCc1ccccc1	inconclusive [inhibitor, single point]	
O=C(CCC1CCCN(C(=O)c2ccc(F)c(F)c2)C1)N1CCN(c2ccccn2)CC1 (centres undefined)	inconclusive [inhibitor, single point]	
COc1ccc(CN2CCN(C(=O)CN3C(=O)C4C5C=CC(C5)C4C3=O)CC2)c(OC)c1OC (centres undefined)	inactive	
O=C(CSc1ccc(Cl)cc1)NC1CCCc2ccccc21 (centres undefined)	inactive	
O=C(Cn1nc(Cc2cccnc2)c2ccccc2c1=O)NCC1CCCO1 (centres undefined)	inconclusive [inhibitor, single point]	
Cc1cc(C)c(NC(=O)CN)c(C)c1	inactive	
COc1ccccc1CNC(=O)COC(=O)c1c[nH]c2ccccc12	inconclusive [inhibitor, partial curve]	
COc1ccc(NC(=O)[C@@H]2CCCN2S(=O)(=O)c2ccc(Cl)cc2)cc1	inconclusive [inhibitor, single point]	
CN(C)CCCN1c2ccccc2C(C)(C)c2ccccc21	inconclusive [inhibitor, single point]	
c1ccc([C@H]2CC3C[C@@H](c4ccccc4)N2O3)cc1	inactive	
Cc1cc(=O)n2[nH]cc(-c3ccccc3)c2n1	inconclusive [inhibitor, single point]	
C[C@H](CO)N1C[C@H](C)[C@@H](CN(C)Cc2ccncc2)OCc2cnnn2CCCC1=O	inactive	
O=c1oc2ccccc2cc1O	inactive	
Cc1cccc(OC(C)C(=O)OCC(=O)Nc2sccc2C(N)=O)c1 (centres undefined)	inconclusive [inhibitor, single point]	
O=P(O)(O)CCP(=O)(c1ccccc1)c1ccccc1	inactive	
COc1ccc2c(c1)C(=O)N1[C@H]3c4cc(Cl)ccc4OC[C@@H]3[C@H](c3ccccc3)[C@]1(C)C(=O)N2	inconclusive [inhibitor, single point]	
O=C(CN1CCN(c2ncc(C(F)(F)F)cc2Cl)CC1)NC(=O)NCc1ccccc1	inconclusive [inhibitor, partial curve]	
CC(C)COc1cccc(C(=O)Nc2ccc(N3CCOCC3)cc2N2CCOCC2)c1	inconclusive [inhibitor, single point]	
COc1ccccc1N1CCN(C(=O)CSc2ncccc2-c2nc3ccccc3[nH]2)CC1	active: 14.6 µM	
COc1ccc(-c2cc(C(=O)NCC3CCCO3)c3ccccc3n2)c(OC)c1 (centres undefined)	inconclusive [inhibitor, single point]	
